# Out of some 310,000 compounds screened, about 14,000 (4.5%) showed an effect of 50% or more. Effects have a minus sign here. Some of the results follow.
# Target: human ether-à-go-go-related gene (hERG) potassium channel (human, UniProt Q12809)
# Experiment: primary screen, population patch clamp on CHO cells stably expressing hERG
# 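Also: peak tail current of the secondary pulse compared with the same well before compound.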
# Chain of human ether-à-go-go-related gene (hERG) potassium channel (Q12809 whole entry, looked up): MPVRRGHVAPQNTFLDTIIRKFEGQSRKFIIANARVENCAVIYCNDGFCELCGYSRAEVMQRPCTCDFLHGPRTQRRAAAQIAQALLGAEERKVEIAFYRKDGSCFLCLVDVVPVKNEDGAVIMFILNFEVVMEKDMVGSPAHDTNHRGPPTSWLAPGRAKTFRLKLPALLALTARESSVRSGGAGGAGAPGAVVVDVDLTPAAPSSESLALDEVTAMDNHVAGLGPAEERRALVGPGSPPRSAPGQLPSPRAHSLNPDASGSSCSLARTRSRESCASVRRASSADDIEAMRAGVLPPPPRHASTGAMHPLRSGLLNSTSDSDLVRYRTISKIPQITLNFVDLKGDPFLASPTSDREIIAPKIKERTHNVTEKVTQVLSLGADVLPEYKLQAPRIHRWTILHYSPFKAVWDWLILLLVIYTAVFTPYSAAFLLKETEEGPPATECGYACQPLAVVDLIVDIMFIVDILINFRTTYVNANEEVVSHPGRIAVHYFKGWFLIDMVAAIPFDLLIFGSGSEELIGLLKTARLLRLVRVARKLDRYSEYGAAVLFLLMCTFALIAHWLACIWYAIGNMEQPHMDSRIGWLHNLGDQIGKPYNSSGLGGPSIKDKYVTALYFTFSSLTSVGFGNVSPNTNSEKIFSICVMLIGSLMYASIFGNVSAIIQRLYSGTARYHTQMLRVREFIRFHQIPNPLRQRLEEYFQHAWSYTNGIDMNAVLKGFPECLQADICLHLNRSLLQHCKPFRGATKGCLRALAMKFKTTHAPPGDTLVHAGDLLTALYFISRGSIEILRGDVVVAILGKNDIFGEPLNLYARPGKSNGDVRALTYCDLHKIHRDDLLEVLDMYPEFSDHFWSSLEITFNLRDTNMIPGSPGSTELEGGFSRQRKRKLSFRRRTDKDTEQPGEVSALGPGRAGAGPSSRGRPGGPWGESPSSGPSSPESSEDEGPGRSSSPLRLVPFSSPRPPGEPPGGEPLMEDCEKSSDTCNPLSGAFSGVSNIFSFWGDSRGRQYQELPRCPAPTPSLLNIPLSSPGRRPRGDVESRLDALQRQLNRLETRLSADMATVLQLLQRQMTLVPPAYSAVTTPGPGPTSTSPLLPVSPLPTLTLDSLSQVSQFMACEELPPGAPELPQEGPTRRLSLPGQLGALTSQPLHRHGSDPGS
row,Structure (SMILES),"hERG current change (%, negative = inhibition) at 10uM"
1,Cc1ccc(CCNS(=O)(=O)c2cnc[nH]2)cc1,2.46%
2,CC(C)c1ccc(O)c(CN2CCN(c3ccccc3)CC2)c1,8.49%
3,O=C1C2C3C=CC(C4CC34)C2C(=O)N1CCc1ccccc1 (stereo not drawn),3.23%
4,COc1cc2cc(C(=O)N3CCc4ccccc4C3)[nH]c2cc1OC,17.3%
5,CC1CC2(CCCCC2)Nc2ccc3ccccc3c21.Cl (stereo not drawn),1.27%
6,COc1cc(OC)cc(C(=O)Nc2cc(C)on2)c1,18.6%
7,CSCCC(NC(=O)c1ccco1)C(=O)NCc1ccc(F)cc1 (stereo not drawn),-4.16%
8,CCOC(=O)c1ccc(Nc2cc(C)nc(-c3ccccc3O)n2)cc1,12.2%
9,CC(C)C(OC(=O)/C=C/c1ccc2c(c1)OCO2)C(=O)NC(N)=O (stereo not drawn),10.9%
10,CCOc1ccc(/C=C(/NC(=O)c2ccc(Cl)cc2)C(=O)O)cc1OCC,-17.3%
11,Cc1ccccc1NC(=O)NCCCN1CCN(C2CCCCC2)CC1,-9.26%
12,COc1ccc(Cl)cc1NC(=O)C/C(C)=N/NC(=O)Cc1ccccc1,0.353%
13,COc1cccc(/C(C)=N/Nc2ncc(Cl)cc2Cl)c1,-10.3%
14,CCc1nnc(NC(=O)CN2CC(C)OC(C)C2)s1 (stereo not drawn),21.1%
15,O=C(Cc1ccccc1)Oc1ccccc1N1C(=O)CCC1=O,3.17%
16,COC(=O)C1=C(c2cc3ccccc3o2)C[C@@H]2CC[C@H]1N2C,-22.1%
17,CCOC(=O)C1=C(c2ccccc2)NC(N)=NC1c1ccc(OCc2ccc(C(=O)OC)cc2)cc1 (stereo not drawn),-43.3%
18,COc1ccc(S(=O)(=O)N2CCN(S(=O)(=O)c3ccc(C(F)(F)F)cc3)CC2)cc1C,4.56%
19,O=S1(=O)NC[C@]23C[C@H](c4ccc(F)cc4)[C@@H](C[C@@H]21)O3,-1.82%
20,COc1ccc2c(c1)C(C)(CCN)C(=O)N2C (stereo not drawn),7.52%

row,Structure (SMILES),"hERG current change (%, negative = inhibition) at 10uM"
1,CCN1CCN(C(=S)c2ccc(Br)cc2)CC1,-50%
2,CCOC(=O)N1CCN(C(=O)C(C)NC(=O)c2ccco2)CC1 (stereo not drawn),13.5%
3,CC(C)OC(=O)c1cc(C(=O)c2cc(Br)ccc2O)coc1=N,1.18%
4,O=C(O)/C=C/c1cccc(NC(=O)c2ccccc2)c1,9.14%
5,CC(CC(=O)NCc1ccc(Cl)cc1)c1ccccc1 (stereo not drawn),-9.48%
6,O=C(COC(=O)Cn1cnc2ccccc21)NCc1ccc(F)cc1,19.6%
7,O=C(/C=C/c1ccc2c(c1)OCO2)Nc1nc(-c2ccc(F)cc2F)cs1,9.08%
8,Cc1ccc2nc(SCC(=O)Nc3cccc(F)c3)nc(=O)n2c1,-18.8%
9,Cc1cccc(C)c1NC(=O)Nc1ccc(S(N)(=O)=O)cc1,18.5%
10,CC(=O)N1CCCc2cc(S(=O)(=O)N3CCc4ccccc4C3)ccc21,-40.6%
11,CN1CCN(CCC(=O)Nc2ccc(OCc3ccccc3)cc2)CC1,-41.6%
12,CC(C)C(=O)Nc1cccc(NC(=O)c2cc3ccccc3o2)c1,-22%
13,COc1ccc(Cl)cc1NC(=O)c1cnc2sccn2c1=O,15.3%
14,O=C(NC(=S)N1CCN(C/C=C/c2ccccc2)CC1)c1cccnc1,-1.04%
15,COc1ccc(CNC(=O)/C=C/c2ccc(OCCCF)cc2)cc1,-3.42%
16,CN1C(=O)c2ccccc2NC(=O)C1Cc1ccccc1 (stereo not drawn),15.4%
17,CCOc1c(Cl)cc(CNCc2ccncc2)cc1OC.Cl,9.45%
18,CC1Cc2ccccc2N1C(=O)COC(=O)c1n[nH]c(=O)c2ccccc12 (stereo not drawn),-45.4%
19,Cc1ccccc1NCC(=O)N/N=C/C(Br)=C/c1ccccc1,2.12%
20,CCC(C)NS(=O)(=O)c1ccc(S(=O)(=O)N(CC(=O)Nc2ccccc2)Cc2ccco2)cc1 (stereo not drawn),23.3%

row,Structure (SMILES),"hERG current change (%, negative = inhibition) at 10uM"
1,O=c1c2ccccc2nc(-c2cccs2)n1-c1ccccc1,7.32%
2,CN(CCCNC(=O)CCC(=O)N1CCOc2ccccc21)Cc1ccccc1,-30.7%
3,CN(c1ccccc1C(=O)Nc1ccc2c(c1)n(C)c(=O)n2C)S(C)(=O)=O,21.5%
4,COCCNC(=O)/C(C#N)=C/c1ccc(SC)cc1,6.32%
5,Cc1cc(C)c(S(=O)(=O)N2CCCOC2CNC(=O)C(=O)NCc2cccnc2)c(C)c1 (stereo not drawn),8.23%
6,Fc1ccccc1OCCCN1CCOCC1,9.41%
7,CC(Oc1ccccc1)c1ccn[nH]1 (stereo not drawn),16.2%
8,Cc1occc1-c1nnc(SCC(=O)N2CCOCC2)n1Cc1ccco1,12.8%
9,C=CCc1cc(/C=C2/NC(=O)N(CC(=O)OC)C2=O)cc(OC)c1O,1.91%
10,O=C(O)c1sccc1Oc1ccc(F)cc1[N+](=O)[O-],-14.8%
11,COc1cc(CC(=O)N2CCC(n3nccc3NC(=O)C3CC3)CC2)cc(OC)c1OC,12.8%
12,O=c1cc(O)c2sc(Nc3ccc(F)cc3)nc2[nH]1,20%
13,CCOC(=O)Cc1c(C)nc(Cc2ccc(OC(C)C)cc2)[nH]c1=O,8.47%
14,CCn1c(Cc2ccccc2)nnc1SCC(=O)Nc1ccccc1O,11.5%
15,O=C(O)c1ccc(CSc2nc(-c3ccccc3)cc(C(F)(F)F)n2)cc1,9.23%
16,Cc1cc(SCc2ccc(Cl)c(Cl)c2)nc(=O)[nH]1,5.19%
17,Cc1ccc(S(=O)(=O)N2CCCCC2CCNC(=O)C(=O)NCc2ccccc2)cc1 (stereo not drawn),-7.6%
18,CCCCOc1ccc(C(=O)N2CCN(c3ncccn3)CC2)cc1,-9.16%
19,CCc1c(C)nc(N)nc1Cl,19.9%
20,COc1ccc(/C(O)=C2/C(=O)C(=O)N(CC3CCCO3)C2c2ccc(O)c(OC)c2)cc1 (stereo not drawn),19.1%
